According to paper PMC5515408:
The list shows a part of the results. At the low end of the ranking, values are background and their order means little.

What follows are sequences tested on MYC (p64) + MAX (p21), in MYC:MAX (assay: protein-binding microarray (anti-MAX antibody)). Conditions: PBM: 15 mM Tris-HCl pH 7.5, 100 mM KCl, 0.075% NP40, 7.5 mM beta-mercaptoethanol, 375 ng/ul BSA, 8 ng/ul poly(dA-dT):(dA-dT), 550 ng complex, 60 min, room …; high values mean tight binding; double strand, one strand shown; sequences stand for … in CCGGC…TTAATAGCTAAGATTACTATATCGACG.

Sequence | binding signal (log2 normalized fluorescence)
TGATTTATCGTA | -0.105
TGATTGGAAGTA | -0.105
CGACACGTGCTA | 0.722
TACAACGTGGTA | 0.8
TGATGGACAGTA | -0.0704
TGGTACGTGGTC | 0.364
TGAGGATGAGTA | -0.0995
TTGCATATTTAC | 0.267
TGACATTGGGTT | 0.187
TGAGGCGTGGTA | 0.519
TGAAACGGCGTA | -0.08
TGACATTTAGTA | 0.0518
TGATTTATGGTA | 0.0504
TAGCACGTGTTT | 0.813
TGAGTGAAAGTA | -0.142
TGAAGTGTGGTA | 0.471
TGACCTGACGTA | 0.202
TGAGTGTACGTA | 0.274
TGAGTCCTTGTA | -0.327
TGAATGTCAGTA | 0.158
CGACGCGTGGTA | 0.626
TGACTTTAAGTA | -0.151
TGAGATTTAGTA | -0.239

Sequence | binding signal (log2 normalized fluorescence)
TGACTCGTAGTA | 0.146
TGATAGGACGTA | -0.191
TGAACCTAAGTA | 0.0538
TGACCTCGGGTA | 0.22
TGCAACGTCGTT | 0.19
TGAGAGGAAGTA | -0.00543
TGAAATGCTGTA | 0.351
TGATCGGTGGTA | 0.157
TGAAAAGTAGTA | 0.0765
TGCCACGTGCTT | 0.652
TGAGGATACGTA | 0.0654
TGAACTGAAGTA | 0.0246
TGAATAGTTGTA | -0.0841
TGACACCTGGTC | 0.371
TGATCGGCAGTA | -0.114
TGACTTTACGTA | 0.207
TGATCTCTTGTA | -0.0736
TGAGCCTTCGTA | -0.0709
TGATCGAGGGTA | -0.0166
TGATCTAAAGTA | -0.109
TGACATTCGGTA | 0.183
TGATGGCGAGTA | 0.253
TGAGGCCACGTA | 0.215

Sequence | binding signal (log2 normalized fluorescence)
TGAATTTGCGTA | -0.00541
TGAATTTCGGTA | -0.0508
TGATACTCCGTA | -0.0605
TGAGCGTAAGTA | 0.00698
TGAGAATGGGTA | 0.181
TGAGAGGCTGTA | 0.0572
TGATAGCGGGTA | 0.0571
TGACCTATCGTA | -0.0576
TGAGCACGCGTA | 0.324
TGAAGGCATGTA | 0.376
TGATCGAGAGTA | 0.0768
TGAGAGAGAGTA | -0.334
TGAAAACGTGTA | 0.422
AGACAAGTGGTA | 0.271
TGAGGCACCGTA | 0.154
TGAAATACTGTA | 0.0408
TGATAATAAGTA | -0.172
TGATGTGTCGTA | 0.188
TGAGTAAGAGTA | -0.216
TGAAGGTACGTA | 0.115
TGATAGTAGGTA | -0.255
TGAACTCCCGTA | 0.0712
TGATCGCCTGTA | 0.0287

Sequence | binding signal (log2 normalized fluorescence)
CACCACGTGGTA | 0.975
TGAGCAGCCGTA | -0.0524
TGAGTAGACGTA | -0.00585
AATGCATTTTTT | 0.535
TGATCACGAGTA | 0.422
TGACAAGTAGTA | -0.00895
TGACAAAATGTA | 0.174
TGTCACGGGGTA | 0.659
TGAAGTATGGTA | 0.237
TGACAGGACGTA | 0.0545
TGATTTCCCGTA | 0.0833
TGACATCATGTA | 0.54
TGAAATGTTGTA | -0.0557
TGATCCAAAGTA | -0.00515
TGACCGACTGTA | 0.018
TGATGCCATGTA | 0.22
TGAGCAGTAGTA | -0.0862
TGACACGGGTAA | 0.24
TGAGCATCAGTA | 0.128
TGATTTTACGTA | -0.056
TGATTTTCTGTA | -0.216
TGATCAATGGTA | -0.0293
TGAACCCTTGTA | 0.283

Sequence | binding signal (log2 normalized fluorescence)
ACCCAATAAGAA | 0.0103
TGATACATAGTA | -0.0443
TGAAAGACCGTA | 0.0326
TGACGCCTGGTA | 0.306
TGAACTTACGTA | 0.181
TGATGTACCGTA | 0.119
TGACAAAGTGTA | 0.184
TGAATCTACGTA | -0.0348
TGATGGTCAGTA | 0.296
TGGCGCGTGGTA | 0.452
TGAATCTTTGTA | -0.0439
TGAGGAGTGGTA | 0.178
TGATCTGCCGTA | -0.178
TCACACGATGTA | 0.603
TGAGTGGACGTA | 0.0641
TGATACTCAGTA | 0.0572
TGAGTCTTCGTA | -0.211
TGATCAATCGTA | -0.024
TGAACCTAGGTA | 0.185
TGAACACGGGTA | 0.444
TAAAACGTTGTA | 0.589
TGATACTACGTA | 0.0703
TGAACCTCAGTA | 0.265

Sequence | binding signal (log2 normalized fluorescence)
TGACATTAGGTA | 0.373
TGATGCACTGTA | 0.122
TGATCACATGTA | 0.704
TGAAATTAAGTA | -0.0181
TGTCCCCTGGTA | -0.00889
TGATCAAGTGTA | 0.195
TGAGCTAGGGTA | -0.194
TGATTAGGAGTA | -0.103
TTAATCGTGGTA | 0.374
TGACACGTGGCG | 0.519
TGAGATCGCGTA | 0.202
TGAACGAACGTA | 0.0585
TGATGATCGGTA | -0.0807
TGAACAACAGTA | 0.103
TGACGGAAAGTA | -0.011
TGACGGCACGTA | 0.245
TGACATGCGGCA | 0.628
TGATCCGGAGTA | -0.164
TGACGAACGGTA | 0.134
TGACCACCCGTA | 0.348
TGATTCTGTGTA | -0.00865
TGAGTTCTAGTA | -0.121
